Measured values taken from the supplement of paper PMC8512760.
This is one part of the list. Repeats are few or missing, and single values can be far off.

tested on: HCC-1143; assay: cell viability relative to vehicle (% of vehicle); basal-like triple-negative breast cancer lines; higher = less cytotoxic; settings: 10 µM; 72 h
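Note: stably firefly luciferase-GFP labeled cells in 96-well plates, viability read as luciferase photon flux after d-luciferin addition, treated wells normalized to vehicle wells, single-dose high-throughput screen.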

Row | Compound | cell viability
1 | Clc1ccc2c(c1)CCc1cccnc1C2=C1CCNCC1 [Desloratadine] | 88.6
2 | CC(CN1CC(=O)NC(=O)C1)N1CC(=O)NC(=O)C1.Cl (stereo not given) [Dexrazoxane HCl (ICRF-187, ADR-529)] | 86.3
3 | CC12CCC3c4ccc(O)cc4CCC3C1CCC2=O (stereo not given) [Estrone] | 79.6
4 | S=c1nc[nH]c2nc[nH]c12 [Mercaptopurine (6-MP)] | 72.2
5 | Cl.Cl.OCCOCCN1CCN(C(c2ccccc2)c2ccc(Cl)cc2)CC1 (stereo not given) [Hydroxyzine 2HCl] | 118
6 | CC(C)C(N)C(=O)OCC(CO)OCn1cnc2c(=O)nc(N)[nH]c21.Cl (stereo not given) [Valganciclovir HCl] | 68
7 | Cl.OC(CNCC(O)C1CCc2cc(F)ccc2O1)C1CCc2cc(F)ccc2O1 (stereo not given) [Nebivolol] | 81.6
8 | COc1ccc2cccc(CCNC(C)=O)c2c1 [Agomelatine] | 73.4
9 | Cc1ccc(-c2cc(C(F)(F)F)nn2-c2ccc(S(N)(=O)=O)cc2)cc1 [Celecoxib] | 84.7
10 | O=C([O-])Cc1ccccc1Nc1c(Cl)cccc1Cl.[K+] [Diclofenac Potassium] | 118
11 | Cc1noc(NS(=O)(=O)c2ccc(N)cc2)c1C [Sulfisoxazole] | 99.3
12 | CN(C)C(=N)N=C(N)N.Cl [Metformin HCl] | 82.9
13 | CC1(COc2ccc3c(c2)ncn3-c2ccc3cccc(N4CCC(N)CC4)c3n2)COC1 | 43.1
14 | FC(F)(F)c1ccc(C=Cc2nc(COc3ccc(CCCCn4ccnn4)cc3)co2)cc1 [Mubritinib (TAK 165)] | 94.7
15 | CCCNC1CCc2nc(N)sc2C1.Cl.Cl.O (stereo not given) [Pramipexole 2HCl Monohydrate] | 91.7
16 | CO[C@H]1/C=C/O[C@@]2(C)Oc3c(C)c(O)c4c(O)c(c5c(nc6cc(C)ccn65)c4c3C2=O)NC(=O)/C(C)=C\C=C\[C@H](C)[C@H](O)[C@@H](C)[C@H](O)[C@@H](C)[C@H](OC(C)=O)[C@@H]1C [Rifaximin (Xifaxan)] | 84.5
17 | OCCOCCN1CCN(C2=Nc3ccccc3Sc3ccccc32)CC1 [Quetiapine] | 100
18 | CC(=O)Nc1ccc(O)cc1 [Acetaminophen] | 97.6
19 | COc1ccc(C2CNC(=O)C2)cc1OC1CCCC1 (stereo not given) [Rolipram] | 88.5
20 | CN(C)CCC=C1c2ccccc2COc2ccc(CC(=O)O)cc21.Cl [Olopatadine HCl] | 89.9

Row | Compound | cell viability
21 | COc1c(N2CCNC(C)C2)c(F)cc2c(=O)c(C(=O)O)cn(C3CC3)c12 (stereo not given) [Gatifloxacin] | 101
22 | Nc1ncn(C2CC(O)C(CO)O2)c(=O)n1 (stereo not given) | 91.3
23 | CCCCOc1cc(C(=O)OCCN(CC)CC)ccc1N.Cl [Oxybuprocaine HCl] | 127
24 | Cc1cc(C)nc(NS(=O)(=O)c2ccc(N)cc2)n1 [Sulfamethazine] | 79.1
25 | CCN(CC)CC#CCOC(=O)C(O)(c1ccccc1)C1CCCCC1 (stereo not given) [Oxybutynin] | 96
26 | CC1(C)CCC(c2ccc(Cl)cc2)=C(CN2CCN(c3ccc(C(=O)NS(=O)(=O)c4ccc(NC(CCN5CCOCC5)CSc5ccccc5)c(S(=O)(=O)C(F)(F)F)c4)cc3)CC2)C1 (stereo not given) [ABT-263 (Navitoclax)] | 73.3
27 | CC(C)(C)NCC(O)COc1nsnc1N1CCOCC1.O=C(O)C=CC(=O)O (stereo not given) [Timolol Maleate] | 81.6
28 | CN1CCCC1c1cccnc1.O=C(O)C(O)C(O)C(=O)O.O=C(O)C(O)C(O)C(=O)O (stereo not given) [Nicotine Difartrate] | 86.4
29 | CO/N=C(\C(=O)N[C@@H]1C(=O)N2C(C(=O)[O-])=C(COC(C)=O)CS[C@H]12)c1csc(N)n1.[Na+] [Cefotaxime (sodium salt)] | 76.7
30 | Cc1nc2c([nH]1)CCN(C(=O)c1ccc(NC(=O)c3ccccc3-c3ccccc3)cc1)c1ccccc1-2.Cl [Conivaptan HCl] | 93.2
31 | Cc1cncc(CN2CCC(=C3c4ccc(Cl)cc4CCc4cccnc43)CC2)c1.O=C(O)C=CC(=O)O [Rupatadine Fumarate] | 81.5
32 | Cn1c([N+](=O)[O-])cnc1COC(N)=O [Ronidazole] | 74.1
33 | COc1cc(NS(=O)(=O)c2ccc(N)cc2)nc(OC)n1 [Sulfadimethoxine] | 88.2
34 | O=c1nc[nH]c2c1ncn2C1CCC(CO)O1 (stereo not given) [Didanosine] | 85.2
35 | C[C@@H]1C\C=C/C=C\C=C/C=C\[C@H](O[C@@H]2O[C@H](C)[C@@H](O)[C@H](N)[C@@H]2O)C[C@@H]2O[C@](O)(C[C@@H](O)C[C@H]3O[C@@H]3/C=C\C(=O)O1)C[C@H](O)[C@H]2C(=O)O [Natamycin] | 64.7
36 | Cc1cc(=O)n(-c2ccccc2)n1C [Antipyrine] | 70.7
37 | CC1c2cccc(O)c2C(O)=C2C(=O)C3(O)C(O)=C(C(N)=O)C(=O)C(N(C)C)C3C(O)C21.Cl (stereo not given) [Doxycycline HCl] | 73.8
38 | Cc1cnc(C(=O)O)c[n+]1[O-] [Acipimox] | 82.4
39 | OC(Cn1cncn1)(Cn1cncn1)c1ccc(F)cc1F [Fluconazole hydrate] | 104
40 | C=C[C@@H]1C[N@@]2CC[C@H]1C[C@@H]2[C@H](O)c1ccnc2ccc(OC)cc12 [Quinidine] | 77
